# Laboratory results reported in the supplement of paper PMC11417369.
# The other results are listed elsewhere or left out.
# Test system: PfHDP1 homeodomain (GST-tagged)
# Assay: gcPBM binding intensity (ln(normalized median fluorescence intensity)); higher = stronger DNA binding
# Method in brief: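 GST-tagged P. falciparum DNA-binding domains produced in E. coli were incubated for 1 h on an Agilent 4 × 180k array of primer-extended double-stranded 36-bp intergenic genomic probes with negative controls. Binding intensity is the highest Masliner-normalised natural-log median intensity across replicate spots of either probe orientation, with bound protein detected by Alexa488 anti-GST antibody at 488 nm.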
row,Sequence,gcPBM binding intensity (ln)
1,ACAAAATATACAAAATGTACAAAATTTACAAAATGT [XGTACX_site3544],6.25
2,AAAAAAAAAAAGCACACACACATATGTGTATTTATA [CACACA_site6578],6.98
3,TACTAGCAAATACATACACACACACCCATATACATA [CACACA_site9163],7.05
4,AATAGAAAAAAATAAGTGCATTTTGGTATTCATCAT [GTGCAC_site9614],9.01
5,GATATTGAGAAAGGGTGTACAAGATATTATACTATA [XGTACX_site3598],6.47
6,TTTTATGTAATTATTTGTACATATGCCTCTTAAACT [XGTACX_site748],6.18
7,ACATAAATAATAAAAACACACATATGTACATATATA [CACACA_site1913],6.61
8,AAATTTATATTCATTTGTACGTAATTTAAATTATAC [XGTACX_site5870],6.77
9,TATTTAACACCTTATACACACTTTCTTCCTTTTTTA [CACACA_site4590],7.12
10,TATACATATGAAAATACACACATACATACCTATATA [CACACA_site6888],6.75
11,TAATTGTACGCCAATACACACAGAATTATAATGTAG [CACACA_site6201],6.86
12,AAAAAAAAAAAAAACACACACACACCCATACAAAAT [CACACA_site1446],6.83
13,ATGCACTCATTGTGCACACGCATATTACGAAAAGAA [CACACA_site2638],10.8
14,TATATATATATGTGTATACACACCTGATAAAGGTAT [CACACA_site2653],8.96
15,AAGATTTGAAAAAATACACACAATAAAAAAATAAAA [CACACA_site3281],6.76
16,AATAAATAAAAAACATGTACAAATATAATATAGCAT [XGTACX_site6429],7.06
17,TTTATTTTTTCCAAGTCACACATGTTTTGATATATT [CACACA_site4946],6.73
18,TACTGAAATAATTATTTAAACGTTTTTATATGTATT [CACACA_negctrl_site487],6.73
19,GTATATATGTATGTATGTACGTATATAGTTATGTAT [XGTACX_site6769],6.69
20,ATAAAAAAATTAAATACATGCACATATACACATACA [TGCATGCA_site129],8.6
21,TCTTGAATAACAAAAAAATGTGCCAACAAAATAAAT [XGTACX_negctrl_site172],6.67
22,TTTGTAAAACTATATTGTACTTTTATATATCTACAA [XGTACX_site5507],6.38
23,ACAACTCGGAAGGTTTGTACTTAAAGTATAATTAAG [XGTACX_site737],6.29

row,Sequence,gcPBM binding intensity (ln)
1,TATATACATGCATATACACACATATATTTATTTATA [CACACA_site6327],6.83
2,ATACAACGATATATATATATACAAATACATATTTAT [CACACA_negctrl_site268],6.6
3,GATTTTTTTTTGTGGACACACAGAAATAAATTTATA [CACACA_site327],6.09
4,CACATACAGATATATACACACAAATATATATACTCA [CACACA_site4591],6.66
5,AAAAAAAATGGATGATCACACACTTCATAAAAATTG [CACACA_site2213],6.14
6,AATATATTTTTTCACTGTACTTTTATTATATATACA [XGTACX_site8312],7
7,ATAATTTTTTGATTTGCATGTAATAAATATATGATA [TGCATGCA_site384],6.53
8,TAAATAGATGTTTTATGTACGTATAAATAAAAAAAA [XGTACX_site3412],6.29
9,ATTAAAAATATAGTCACACATACACCCATATATATT [CACACA_site5394],6.63
10,TTTTTTTAAAGACATGCATGTAATATTTAAATCATT [TGCATGCA_site495],6.44
11,AGGATACACAGACACACACACATATATATATATATA [CACACA_site907],9.23
12,ATGGTAAGTATTTTATGTACATATATATTTATATAA [XGTACX_site4003],6.39
13,ACATATATATAAATATATATATATATATATATATAT [CACACA_negctrl_site874],9.38
14,AAAAAAAAAAAAAAAAGTACTAATTGAATATTAAAC [XGTACX_site3383],6.53
15,TACACCCATAGACACACACACACGCATAAAAAAAAA [CACACA_site8428],6.85
16,TAATAAAGGTGTAATACACACTATAAAAAGGAATAT [CACACA_site4756],7.28
17,AAAAAACAAAAAATTACACACATATATAAATATATT [CACACA_site2317],6.04
18,ATGTGTATATATTATTGTACATATATATATATATAT [XGTACX_site4627],9.24
19,ACACATATATAAATATGTACATATATATATATACAT [XGTACX_site1595],6.4
20,TAATTAAATAAAAAAACACACACATATATACATATA [CACACA_site9141],6.78
21,TCTATTAATTAATATACACACATTAGATATAAATAT [CACACA_site7241],6.7
22,TTTTTCAAATTTAATACACACACAAGTATATATTTA [CACACA_site9307],6.55
23,TTTTTCTTTTTACATACACACAAAAAAATAAAATAT [CACACA_site581],6.67

row,Sequence,gcPBM binding intensity (ln)
1,TGGTAATTTCTTTGATAAAAATTAATATGTATAAAT [XGTACX_negctrl_site152],6.2
2,AAATTAATATTATGTGCATGCACAAAGAGGAACGAC [TGCATGCA_site754],11.8
3,AATATTTGTTAAAGAGGTACACCATTTGGTAGGGAA [XGTACX_site2165],6.74
4,ATTATTTAAATGGATGCACACATGCATTAAATAAAA [CACACA_site5831],8.28
5,AAAAAAAAAAATATAACACACAACAAAAAAATATAT [CACACA_site1753],6.89
6,ATAATATGAAAACACACACACACACTAGAAAAAAAA [CACACA_site5153],6.86
7,TATTTTAACATTAGGTGTACATACAAAAATAAAAAT [XGTACX_site8577],6.75
8,ACAAGTTAAAATATTACACACATATAAATATATATA [CACACA_site3132],6.56
9,TTTTATTTACACAGTGGTACTATTAAAAATTAATGA [XGTACX_site6737],6.72
10,ATAAGGTTACAACAAACACACAAAGGAATATACTCA [CACACA_site6108],6.74
11,ATTTCATATTATGTAACACACAACAAGATAATCAAA [CACACA_site1960],6.39
12,TATATATAAAGGTGTACACATATATATATATCTGTA [CACACA_site5311],6.48
13,TTTTTTAACCTTTTATGTACACAATATTTAACATTT [XGTACX_site1170],7.31
14,ACTTACACAGTTGATGGTACACTTTTATGATTTTGT [XGTACX_site3205],6.88
15,AAGATTTTCCTTGATAGTACACTTATGAAAATTTGT [XGTACX_site3047],6.29
16,AATATCTTAGTGGATACACACATATAAATGTGGATT [CACACA_site485],6.16
17,ATATATTACGACTTCTGTACATAATATATAAAAGAA [XGTACX_site2353],6.66
18,AAAGTAAAAAATCATAGTACACATTTAAATATATAT [XGTACX_site2323],6.73
19,TTTTTTAAATTATGTAGTACGATTCATTTTTTATAA [XGTACX_site1101],5.98
20,GGTATATATTTATAATGTACATATTCATATATATAA [XGTACX_site3291],6.23
21,TAATATATCAAATGAAGTACTCACATATACATAATA [XGTACX_site6051],6.46
22,ATATAATATATATATTGTACATATATTTATAAGCAT [XGTACX_site3726],6.5
23,TATATATATATATATTGTACATTTACCAAATTGTGT [XGTACX_site5791],9.27

row,Sequence,gcPBM binding intensity (ln)
1,AATGTGCTCGCTATTACACACTCATTGGGATAAACT [CACACA_site7043],7.85
2,TTTAATAATAATACTAGTACACATTCTTTATTATTT [XGTACX_site2671],7.01
3,TATATAAATAAATATACACACATATATAAATATACA [CACACA_site2982],6.42
4,TTTTTTTTTTTTTGCACACTTAAATTTGGAGTGTAG [CACACA_site2345],8.98
5,TAAATTTATAGACACACACACATATAAATAAATATA [CACACA_site6530],7.12
6,TGAATTAAGATTTATTGTACATAATTTATACCATAT [XGTACX_site7034],6.33
7,TTACAACATGAAAATGTGCACATATATATATATATA,10.8
8,GAAATAAATATAATATATATATATATATATATATGT [TGCATGCA_negctrl_site216],7.14
9,AAAAATAAATATATATGTACACATATGTATACAATA [XGTACX_site4692],6.25
10,GGTATACACAGACATGCATGTAATTATATATAGGGA [TGCATGCA_site83],7.2
11,CATCATCTTTTAAAGGTGCATAATAATATTGTTAAT,9.22
12,GTCTATTATTTTTGAAGTACAAAAATTTTAGTTAAA [XGTACX_site4708],6.3
13,ATGTTCTTTAAAACCACACACCCCCCAACCCCCCTC [CACACA_site2373],8.36
14,TGAAATTCCATAAAATGTACATATTAGTTTAATTCA [XGTACX_site4031],5.95
15,TCGCCCTACAATTTGTTTATATATTAAATAAAATTT [CACACA_negctrl_site883],6.9
16,AATATATTTAATCATACACACATTTATGTACCTATA [CACACA_site1718],6.65
17,AAAGCTAATATTATATGTACTTATATATTTATATAT [XGTACX_site4474],6.23
18,ATATAAATCTACACCGCACACAAAAACAACAAATAT [CACACA_site2506],7.11
19,AAATAAATGAAACACACACACACAAAAAAAAAAAAC [CACACA_site2625],6.88
20,TATAATGTTAAATAATGTACATATTTTTTTTTTTTT [XGTACX_site4721],6.16
